Data from US12479866B2, “Boron-containing rho kinase inhibitors” (Percipiad, Inc., priority 2019, dated 2025).

Assays:
Assay type in all cases: biochemical
[1] = target: PKCi (Homo sapiens (Human), UniProt P41743); assay: AGC Kinase Selectivity Profiling (ADP-Glo); details: 1 μM compound; AGC Panel; read-out: Percent enzyme activity inhibition, PKCi
From the text: (§1) ROCK1 (also called ROCK I, ROKβ, Rho-kinase β, or p160ROCK) and ROCK2 ((also known as ROCK II, ROKα, or Rho kinase) belong to AGC family of serine/threonine kinases. The group of AGC kinases consists of 63 evolutionarily related serine/threonine protein kinases comprising PDK1, PKB/Akt, SGK, PKC, PRK/PKN, MSK, RSK, S6K, PKA, PKG, DMPK, MRCK, ROCK, NDR, LATS, CRIK, MAST, GRK, Sgk494, and YANK, while two other families, Aurora and PLK, are the most closely related to the group (Leroux et al., AGC kinases, mechanisms of regulation and innovative drug development, Semin Cancer Biol. 2018 February; 48:1-17).

[2] = target: PKCg (Homo sapiens (Human), UniProt P05129); assay: AGC Kinase Selectivity Profiling (ADP-Glo); details: 1 μM compound; AGC Panel; read-out: Percent enzyme activity inhibition, PKCg
From the text: as §1

[3] = target: PDK1 (Homo sapiens (Human), UniProt O15530); assay: AGC Kinase Selectivity Profiling (ADP-Glo); details: 1 μM compound; AGC Panel; read-out: Percent enzyme activity inhibition, PDK1
From the text: as §1

[4] = target: PKCe (Homo sapiens (Human), UniProt Q02156); assay: AGC Kinase Selectivity Profiling (ADP-Glo); details: 1 μM compound; AGC Panel; read-out: Percent enzyme activity inhibition, PKCe
From the text: as §1

[5] = target: p7056Kb (Homo sapiens (Human), UniProt Q9UBS0); assay: AGC Kinase Selectivity Profiling (ADP-Glo); details: 1 μM compound; AGC Panel; read-out: Percent enzyme activity inhibition, p7056Kb
From the text: as §1

[6] = target: AKT1 (Homo sapiens (Human), UniProt P31749); assay: AGC Kinase Selectivity Profiling (ADP-Glo); details: 1 μM compound; AGC Panel; read-out: Percent enzyme activity inhibition, AKT1
From the text: as §1

[7] = target: T1, PKCtheta (Homo sapiens (Human), UniProt Q04759); assay: AGC Kinase Selectivity Profiling (ADP-Glo); details: 1 μM compound; AGC Panel; read-out: Percent enzyme activity inhibition, PKCtheta
From the text: as §1

[8] = target: PKCz (Homo sapiens (Human), UniProt Q05513); assay: AGC Kinase Selectivity Profiling (ADP-Glo); details: 1 μM compound; AGC Panel; read-out: Percent enzyme activity inhibition, PKCz
From the text: as §1

[9] = target: PKCd (Homo sapiens (Human), UniProt Q05655); assay: AGC Kinase Selectivity Profiling (ADP-Glo); details: 1 μM compound; AGC Panel; read-out: Percent enzyme activity inhibition, PKCd
From the text: as §1

[10] = target: PKA (Homo sapiens (Human), UniProt P17612); assay: Radioisotope filter binding kinase assay; details: 10 uM ATP, read-out: IC50 estimates, PKA
Protocol: (§2) Experiment was conducted by Absorption Systems. […] The radioisotope filter binding assay is considered the gold standard for kinase profiling. The assay directly detects the true product without the use of modified substrates, coupling enzymes, or detection antibodies. Compounds are incubated with kinase, substrate, cofactors, and radioisotope-labeled ATP (^33P-Y-ATP). The reaction mixtures are then spotted onto filter papers, which bind the radioisotope-labeled catalytic product. Unreacted phosphate is removed via washing of the filter papers.
(§3) • Prepare kinase-specific substrate in freshly prepared Base Reaction Buffer (20 mM Hepes (pH 7.5), 10 mM MgCl2, 1 mM EGTA, 0.02% Brij35, 0.02 mg/ml BSA, 0.1 mM Na3VO4, 2 mM DTT, 10 µM ATP, and 1% DMSO). • Add kinase enzyme into the substrate solution and gently mix. • Add compounds in DMSO into the kinase reaction mixture by Acoustic technology (Echo550; nanoliter range), incubate for 20 minutes at room temperature. • Add ^33P-ATP (specific activity 10 μCi/μl)) into the reaction mixture to initiate the reaction. • Incubate kinase reaction for 2 hours at room temperature. • Spot reactions onto P81 ion exchange paper. • Detect kinase activity by filter-binding method.

[11] = target: MRCKa (Homo sapiens (Human), UniProt Q5VT25); assay: Radioisotope filter binding kinase assay; details: 10 uM ATP, read-out: IC50 estimates, MRCKa
Protocol: as §2, §3

[12] = target: ROCK2 (Homo sapiens (Human), UniProt O75116); assay: Radioisotope filter binding kinase assay; details: 10 uM ATP, read-out: IC50 estimates, ROCK2
Protocol: as §2, §3

[13] = target: ROCK1 (Homo sapiens (Human), UniProt Q13464); assay: Radioisotope filter binding kinase assay; details: 10 uM ATP, read-out: IC50 estimates, ROCK1
Protocol: as §2, §3

[14] = target: T1, PKCtheta; assay: Radioisotope filter binding kinase assay; details: 10 uM ATP, read-out: IC50 estimates, PKCtheta
Protocol: as §2, §3

T1 sequence (Q04759 whole entry): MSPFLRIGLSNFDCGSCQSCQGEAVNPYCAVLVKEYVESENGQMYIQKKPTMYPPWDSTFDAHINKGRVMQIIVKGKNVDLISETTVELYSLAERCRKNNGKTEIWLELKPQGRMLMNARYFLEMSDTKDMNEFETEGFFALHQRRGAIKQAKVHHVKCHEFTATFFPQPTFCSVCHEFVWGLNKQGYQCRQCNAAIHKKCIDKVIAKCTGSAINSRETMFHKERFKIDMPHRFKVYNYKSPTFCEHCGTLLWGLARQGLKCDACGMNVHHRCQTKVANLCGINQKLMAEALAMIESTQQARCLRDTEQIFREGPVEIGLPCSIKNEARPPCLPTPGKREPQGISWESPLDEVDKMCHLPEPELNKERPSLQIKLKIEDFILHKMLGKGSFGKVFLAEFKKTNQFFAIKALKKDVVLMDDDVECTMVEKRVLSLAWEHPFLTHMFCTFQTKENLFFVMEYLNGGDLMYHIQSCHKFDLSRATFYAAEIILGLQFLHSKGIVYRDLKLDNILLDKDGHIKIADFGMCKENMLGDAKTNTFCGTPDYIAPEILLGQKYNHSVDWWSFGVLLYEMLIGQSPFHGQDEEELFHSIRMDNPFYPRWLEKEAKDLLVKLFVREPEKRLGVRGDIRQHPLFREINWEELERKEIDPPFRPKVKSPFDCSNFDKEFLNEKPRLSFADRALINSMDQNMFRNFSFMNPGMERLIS
UniProt Q5VT25, sequence (Q5VT25 whole entry): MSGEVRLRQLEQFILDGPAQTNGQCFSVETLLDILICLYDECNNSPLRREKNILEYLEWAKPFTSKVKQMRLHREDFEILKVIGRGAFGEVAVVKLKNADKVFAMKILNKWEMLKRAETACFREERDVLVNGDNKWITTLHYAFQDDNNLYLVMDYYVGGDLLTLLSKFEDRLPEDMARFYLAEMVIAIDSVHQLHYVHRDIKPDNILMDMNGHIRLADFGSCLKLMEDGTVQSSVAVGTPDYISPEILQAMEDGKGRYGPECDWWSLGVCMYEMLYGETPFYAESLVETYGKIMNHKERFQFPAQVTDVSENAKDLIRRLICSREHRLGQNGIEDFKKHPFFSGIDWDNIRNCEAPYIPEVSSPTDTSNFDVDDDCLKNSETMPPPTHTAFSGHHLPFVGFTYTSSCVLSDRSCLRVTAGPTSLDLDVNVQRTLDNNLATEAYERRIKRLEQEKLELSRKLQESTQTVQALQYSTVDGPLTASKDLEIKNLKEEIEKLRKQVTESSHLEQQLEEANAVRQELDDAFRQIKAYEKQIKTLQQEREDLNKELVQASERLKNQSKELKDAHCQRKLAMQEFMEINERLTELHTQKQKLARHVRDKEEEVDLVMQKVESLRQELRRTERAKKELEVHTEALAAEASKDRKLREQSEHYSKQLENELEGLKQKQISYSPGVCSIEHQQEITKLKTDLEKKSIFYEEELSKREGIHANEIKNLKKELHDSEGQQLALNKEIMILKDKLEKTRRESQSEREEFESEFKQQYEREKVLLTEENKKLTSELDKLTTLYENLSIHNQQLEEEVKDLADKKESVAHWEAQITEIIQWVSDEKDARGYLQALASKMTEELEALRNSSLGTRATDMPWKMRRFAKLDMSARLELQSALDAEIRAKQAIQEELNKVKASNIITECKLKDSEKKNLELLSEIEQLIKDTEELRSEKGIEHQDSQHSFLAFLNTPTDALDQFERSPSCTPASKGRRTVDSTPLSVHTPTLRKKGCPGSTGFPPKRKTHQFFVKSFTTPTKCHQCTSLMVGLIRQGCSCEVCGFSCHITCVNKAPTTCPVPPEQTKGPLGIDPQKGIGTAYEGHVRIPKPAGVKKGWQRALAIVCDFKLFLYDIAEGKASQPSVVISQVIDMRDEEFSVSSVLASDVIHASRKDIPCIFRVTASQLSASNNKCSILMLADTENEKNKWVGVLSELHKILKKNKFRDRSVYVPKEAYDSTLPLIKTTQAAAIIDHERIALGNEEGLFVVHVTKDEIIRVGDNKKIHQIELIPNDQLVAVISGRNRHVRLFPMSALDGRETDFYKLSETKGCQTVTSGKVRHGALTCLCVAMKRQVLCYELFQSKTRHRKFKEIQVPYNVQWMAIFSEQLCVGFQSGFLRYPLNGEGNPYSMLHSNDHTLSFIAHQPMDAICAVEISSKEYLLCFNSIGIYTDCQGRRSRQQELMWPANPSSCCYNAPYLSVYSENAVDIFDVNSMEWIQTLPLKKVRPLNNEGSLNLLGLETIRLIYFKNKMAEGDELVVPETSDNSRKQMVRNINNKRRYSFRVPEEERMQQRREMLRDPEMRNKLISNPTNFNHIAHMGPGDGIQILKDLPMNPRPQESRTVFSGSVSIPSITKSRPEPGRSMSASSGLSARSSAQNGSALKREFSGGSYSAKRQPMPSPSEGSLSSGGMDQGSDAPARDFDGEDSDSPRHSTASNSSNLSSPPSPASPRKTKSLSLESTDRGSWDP
UniProt O15530, sequence (O15530 whole entry): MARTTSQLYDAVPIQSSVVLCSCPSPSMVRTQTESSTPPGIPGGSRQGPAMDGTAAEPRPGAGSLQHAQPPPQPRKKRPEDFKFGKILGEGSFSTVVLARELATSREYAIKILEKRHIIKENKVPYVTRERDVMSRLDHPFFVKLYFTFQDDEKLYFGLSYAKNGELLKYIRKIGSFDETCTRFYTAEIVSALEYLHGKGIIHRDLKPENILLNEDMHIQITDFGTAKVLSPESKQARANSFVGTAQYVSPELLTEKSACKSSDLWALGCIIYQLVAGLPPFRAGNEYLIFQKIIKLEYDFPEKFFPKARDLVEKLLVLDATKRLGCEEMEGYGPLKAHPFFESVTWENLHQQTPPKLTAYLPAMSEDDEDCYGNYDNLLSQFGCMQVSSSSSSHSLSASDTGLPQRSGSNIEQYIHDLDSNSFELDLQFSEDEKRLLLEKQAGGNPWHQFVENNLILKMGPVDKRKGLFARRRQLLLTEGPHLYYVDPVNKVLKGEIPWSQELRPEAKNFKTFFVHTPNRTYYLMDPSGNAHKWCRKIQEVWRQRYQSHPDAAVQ
UniProt Q9UBS0, sequence (Q9UBS0 whole entry): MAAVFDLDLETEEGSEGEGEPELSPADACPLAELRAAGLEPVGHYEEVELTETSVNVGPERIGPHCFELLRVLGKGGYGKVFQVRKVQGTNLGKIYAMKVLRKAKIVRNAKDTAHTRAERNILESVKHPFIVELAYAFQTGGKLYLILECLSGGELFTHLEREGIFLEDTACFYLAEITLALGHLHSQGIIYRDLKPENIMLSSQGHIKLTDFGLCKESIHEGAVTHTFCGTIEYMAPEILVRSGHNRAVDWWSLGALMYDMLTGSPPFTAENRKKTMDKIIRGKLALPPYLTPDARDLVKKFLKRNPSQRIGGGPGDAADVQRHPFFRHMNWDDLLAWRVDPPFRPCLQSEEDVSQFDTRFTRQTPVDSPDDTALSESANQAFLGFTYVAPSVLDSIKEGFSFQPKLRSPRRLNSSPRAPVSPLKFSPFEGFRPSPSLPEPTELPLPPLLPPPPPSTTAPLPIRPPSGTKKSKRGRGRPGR
UniProt Q05513, sequence (Q05513 whole entry): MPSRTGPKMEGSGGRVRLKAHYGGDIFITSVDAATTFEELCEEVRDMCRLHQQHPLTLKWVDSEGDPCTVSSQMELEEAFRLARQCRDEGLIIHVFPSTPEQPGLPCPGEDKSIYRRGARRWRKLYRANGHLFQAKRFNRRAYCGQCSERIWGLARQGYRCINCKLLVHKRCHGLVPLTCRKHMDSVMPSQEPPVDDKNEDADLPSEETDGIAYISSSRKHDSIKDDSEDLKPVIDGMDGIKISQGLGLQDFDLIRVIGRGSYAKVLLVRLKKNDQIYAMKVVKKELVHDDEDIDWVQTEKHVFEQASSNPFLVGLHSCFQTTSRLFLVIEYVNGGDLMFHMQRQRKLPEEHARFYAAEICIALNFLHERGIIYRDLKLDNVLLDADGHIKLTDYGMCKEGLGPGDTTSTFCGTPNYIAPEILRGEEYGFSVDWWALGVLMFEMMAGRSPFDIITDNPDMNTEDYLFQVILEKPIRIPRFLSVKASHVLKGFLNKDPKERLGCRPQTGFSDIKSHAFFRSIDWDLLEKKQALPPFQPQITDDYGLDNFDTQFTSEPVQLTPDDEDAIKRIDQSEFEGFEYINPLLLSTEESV
UniProt Q05655, sequence (Q05655 whole entry): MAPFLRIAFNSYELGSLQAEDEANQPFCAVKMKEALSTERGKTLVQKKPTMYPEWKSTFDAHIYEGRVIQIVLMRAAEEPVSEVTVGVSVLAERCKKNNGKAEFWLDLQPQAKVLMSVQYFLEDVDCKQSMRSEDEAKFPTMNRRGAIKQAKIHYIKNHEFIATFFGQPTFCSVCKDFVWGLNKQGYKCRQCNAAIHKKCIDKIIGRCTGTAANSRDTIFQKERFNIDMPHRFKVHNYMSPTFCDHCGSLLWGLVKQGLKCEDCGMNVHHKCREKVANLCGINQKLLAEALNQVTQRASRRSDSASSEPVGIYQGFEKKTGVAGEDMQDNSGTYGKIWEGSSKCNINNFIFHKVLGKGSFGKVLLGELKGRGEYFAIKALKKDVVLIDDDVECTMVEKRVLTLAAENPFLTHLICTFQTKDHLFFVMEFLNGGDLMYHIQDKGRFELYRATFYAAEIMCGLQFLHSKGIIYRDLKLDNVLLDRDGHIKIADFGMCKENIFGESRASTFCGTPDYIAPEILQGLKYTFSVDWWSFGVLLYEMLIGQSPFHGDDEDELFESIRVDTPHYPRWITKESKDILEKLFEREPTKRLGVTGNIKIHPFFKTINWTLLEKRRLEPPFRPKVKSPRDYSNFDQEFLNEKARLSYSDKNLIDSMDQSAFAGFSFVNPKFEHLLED

SMILES | inhibition at 1 µM [1] | inhibition at 1 µM [2] | inhibition at 1 µM [3] | inhibition at 1 µM [4] | inhibition at 1 µM [5] | inhibition at 1 µM [6] | inhibition at 1 µM [7] | inhibition at 1 µM [8] | inhibition at 1 µM [9] | IC50 [10] | IC50 [11] | IC50 [12] | IC50 [13] | IC50 [14]
Cc1ccc(C(=O)OCc2ccc([C@@H](CN)C(=O)Nc3ccc4cnccc4c3)cc2)c(C)c1.Cl.Cl [Netarsudil•2HCl, Netarsudil, reference compound] | 20% | 36% | 77% | 25% | 52% | 5% | 51% | 22% | 75% | – | – | – | – | –
Cl.Cl.NCC(C(=O)Nc1ccc2cnccc2c1)c1ccc(B(O)O)cc1 (stereo not shown) [Compound 10•2HCl] | – | – | – | – | – | – | – | – | – | 26 nM | > 10 µM | 4 nM | 10 nM | > 10 µM
Cc1ccc(C(=O)OCc2ccc([C@@H](CN)C(=O)Nc3ccc4cnccc4c3)cc2)c(C)c1 [Netarsudil dimesylate] | – | – | – | – | – | – | – | – | – | – | > 10 µM | – | – | > 10 µM
